Results published in the antibiotic and cytotoxicity screens of Wong et al. (2023).
Some of the results follow.

Key:
[1] = tested on: HSkMC (human skeletal muscle cells); assay: cytotoxicity call (relative viability < 0.9); details: 10 µM
[2] = tested on: HepG2; assay: cytotoxicity call (relative viability < 0.9); details: 10 µM
[3] = tested on: S. aureus RN4220; assay: growth inhibition call (relative growth <= 0.2); details: 50 µM

| Compound | cytotoxicity call [1] | cytotoxicity call [2] | growth inhibition call [3] |
| --- | --- | --- | --- |
| C[C@@H]1O[C@H](Oc2cc(O)c3c(=O)c(O[C@H]4O[C@H](CO)[C@H](O)[C@H](O)[C@@H]4O[C@@H]4O[C@H](C)[C@@H](O)[C@H](O)[C@@H]4O)c(-c4ccc(O)c(O)c4)oc3c2)[C@@H](O)[C@H](O)[C@@H]1O | inactive | inactive | inactive |
| C[C@H](CO)N1C[C@H](C)[C@H](CN(C)C(=O)Nc2cccc(F)c2)Oc2cc(C#CC3(O)CCCC3)ccc2S1(=O)=O | inactive | inactive | inactive |
| N[C@H](Cc1ccccc1)C(=O)O | inactive | inactive | inactive |
| C[C@@H]1CN([C@H](C)CO)C(=O)Cc2cc(NC(=O)Nc3cccc4ccccc34)ccc2O[C@@H]1CN(C)Cc1ccc(Cl)c(Cl)c1 | inactive | active | inactive |
| O=C(CCCCn1c(=O)[nH]c2ccccc2c1=O)N1CCN(c2ncccn2)CC1 | inactive | inactive | inactive |
| C[C@H](CO)N1C[C@H](C)[C@@H](CN(C)Cc2ccc(C(=O)O)cc2)OCCCC[C@H](C)Oc2ccc(NS(=O)(=O)c3ccc(F)cc3)cc2C1=O | inactive | inactive | inactive |
| c1cc(CNCCN2CCOCC2)ccn1 | inactive | inactive | inactive |
| C[C@@H]1CCCCO[C@@H](CN(C)C(=O)Nc2ccc(F)cc2)[C@H](C)CN([C@H](C)CO)C(=O)c2cc(NC(=O)CCC(F)(F)F)ccc2O1 | inactive | inactive | inactive |
| C[C@@H]1CN([C@@H](C)CO)C(=O)c2c(c3ccccc3n2C)-c2ccccc2CO[C@H]1CN(C)Cc1ccc2c(c1)OCCN2C | inactive | active | inactive |
| COc1ccc(S(=O)(=O)Nc2cccc3c2O[C@@H](CN(C)Cc2ccncc2)[C@H](C)CN([C@@H](C)CO)C3=O)cc1 | inactive | inactive | inactive |
| Cc1noc(C)c1S(=O)(=O)N(C)C[C@H]1Oc2ccc(NC(=O)Cc3ccccc3)cc2CC(=O)N([C@@H](C)CO)C[C@@H]1C | inactive | inactive | inactive |
| COc1ccc(NC(=O)Nc2ccc3c(c2)C(=O)N([C@H](C)CO)C[C@@H](C)[C@@H](CN(C)S(=O)(=O)c2cccs2)OCCCC[C@@H](C)O3)cc1 | inactive | inactive | inactive |
| CC=CC1=C(C(=O)O)N2C(=O)C(NC(=O)C(N)c3ccc(O)cc3)C2SC1 (stereo not given) | inactive | inactive | inactive |
| C[C@@H]1CN([C@H](C)CO)C(=O)Cc2cc(NS(=O)(=O)c3ccc(F)cc3)ccc2O[C@@H]1CN(C)Cc1ccc(Oc2ccccc2)cc1 | active | active | inactive |
| COc1ccc(NC(=O)N(C)C[C@H]2Oc3c(NC(=O)c4cc(C)nn4C)cccc3C(=O)N([C@H](C)CO)C[C@H]2C)cc1 | inactive | inactive | inactive |
| Cc1ccc(S(=O)(=O)N(C)C[C@@H]2OCCCC[C@@H](C)Oc3ccc(NC(=O)Cc4ccccc4)cc3C(=O)N([C@H](C)CO)C[C@@H]2C)cc1 | inactive | inactive | inactive |
| CC(C)NC(=O)N(C)C[C@H]1Oc2ccc(NC(=O)CCC(F)(F)F)cc2CC(=O)N([C@@H](C)CO)C[C@H]1C | inactive | inactive | inactive |
| C[C@H]1CN([C@@H](C)CO)C(=O)c2cc(NC(=O)Nc3ccc(C(F)(F)F)cc3)ccc2O[C@@H]1CN(C)C(=O)Nc1ccccc1 | inactive | inactive | inactive |
| C[C@H](CO)N1C[C@H](C)[C@@H](CN(C)C(=O)Nc2cccc3ccccc23)Oc2ccc(NC(=O)CCC(F)(F)F)cc2C1=O | inactive | inactive | inactive |
| COc1ccc(NC(=O)N(C)C[C@H]2OCCCC[C@H](C)Oc3ccc(NC(=O)Nc4ccc(F)cc4)cc3C(=O)N([C@@H](C)CO)C[C@@H]2C)cc1 | inactive | inactive | inactive |
| C[C@@H]1CN([C@@H](C)CO)C(=O)CCCn2nncc2CO[C@H]1CN(C)C(=O)Nc1ccc(C(F)(F)F)cc1 | inactive | inactive | inactive |
| C[C@H]1CN([C@@H](C)CO)C(=O)Cc2cc(NC(=O)Nc3cccc4ccccc34)ccc2O[C@@H]1CN(C)Cc1ccc(-c2ccccc2)cc1 | active | inactive | inactive |
| COCC#Cc1ccc2c(c1)O[C@H](CN(C)Cc1ccc3c(c1)OCO3)[C@@H](C)CN([C@@H](C)CO)S2(=O)=O | inactive | inactive | inactive |
| Cc1ccc(S(=O)(=O)NCCC(=O)N2CCOCCOCCOCC2)cc1 | inactive | inactive | inactive |
| C[C@H](CO)N1C[C@H](C)[C@H](CN(C)C(=O)Nc2ccc(C(F)(F)F)cc2)Oc2c(NC(=O)Nc3ccc4c(c3)OCO4)cccc2C1=O | inactive | inactive | inactive |
| O=C(/C=C/c1ccc(O)c(O)c1)O[C@@H]1O[C@H](CO)[C@@H](O)[C@H](O)[C@H]1O | inactive | inactive | inactive |
| Cc1ccc(S(=O)(=O)N(C)C[C@@H]2OCCCC[C@H](C)Oc3ccc(NC(=O)NC4CCCCC4)cc3C(=O)N([C@H](C)CO)C[C@@H]2C)cc1 | inactive | inactive | inactive |
| Cc1nn2cc(CN)nc2s1 | inactive | inactive | inactive |

| Compound | cytotoxicity call [1] | cytotoxicity call [2] | growth inhibition call [3] |
| --- | --- | --- | --- |
| COCC#Cc1cnc2c(c1)C(=O)N([C@@H](C)CO)C[C@H](C)[C@@H](CN(C)S(=O)(=O)c1cccc(OC)c1)O2 | inactive | inactive | inactive |
| COCC(=O)N1C[C@@H](C)[C@H](OC)CN(C)C(=O)c2ccc(NC(=O)c3ccc(F)cc3)cc2OC[C@H]1C | inactive | inactive | inactive |
| Cc1ccc(-c2ccc3c(c2)O[C@H](CN(C)C(=O)Nc2ccc(C(F)(F)F)cc2)[C@H](C)CN([C@@H](C)CO)S3(=O)=O)cc1 | inactive | inactive | inactive |
| COCC(=O)Nc1ccc2c(c1)C(=O)N(C)[C@@H]1CC[C@H](CC(=O)N3CCc4ccccc4C3)O[C@H]1CO2 | inactive | inactive | inactive |
| Cc1noc(C)c1NC(=O)Nc1ccc2c(c1)CC(=O)N([C@@H](C)CO)C[C@@H](C)[C@@H](CN(C)Cc1ccc(Cl)c(Cl)c1)O2 | inactive | inactive | inactive |
| CC(NC(CCc1ccccc1)C(=O)O)C(=O)N1Cc2ccccc2CC1C(=O)O (stereo not given) | inactive | inactive | inactive |
| N#Cc1ccc(-c2ccccc2F)o1 | inactive | inactive | inactive |
| O=C(C[C@@H]1CC[C@@H]2[C@H](COC[C@@H](O)CN2C(=O)Nc2ccc(Cl)cc2)O1)NCCc1ccncc1 | inactive | inactive | inactive |
| C[C@@H]1CN([C@H](C)CO)C(=O)Cc2cc(NC(=O)CCN3CCOCC3)ccc2O[C@H]1CN(C)Cc1ccc2c(c1)OCO2 | inactive | inactive | inactive |
| O=C(C[C@H](Nc1ccc(F)cc1)c1ccccc1)c1ccccc1 | inactive | inactive | inactive |
| COc1ccc(C#Cc2cnc3c(c2)C(=O)N([C@@H](C)CO)C[C@H](C)[C@@H](CN(C)CC2CCOCC2)O3)cc1 | inactive | inactive | inactive |
| CCS(=O)(=O)NCc1nccc(N(C)C)n1 | inactive | inactive | inactive |
| C[C@H]1CN([C@@H](C)CO)C(=O)c2cc(/C=C/c3ccccc3)cnc2O[C@@H]1CN(C)S(=O)(=O)c1cn(C)cn1 | inactive | inactive | inactive |
| COc1ccc(S(=O)(=O)N[C@H]2C=C[C@H](CC(=O)NCCc3ccncc3)O[C@@H]2CO)cc1 | inactive | inactive | inactive |
| C[C@H]1CN([C@@H](C)CO)C(=O)c2cccc(NS(C)(=O)=O)c2O[C@H]1CN(C)C(=O)NC1CCCCC1 | inactive | inactive | inactive |
| Cc1noc(C)c1NC(=O)Nc1cccc2c1O[C@H](CN(C)C(=O)Nc1ccc(C(F)(F)F)cc1)[C@H](C)CN([C@H](C)CO)C2=O | inactive | inactive | inactive |
| COc1ccc(NC(=O)Nc2ccc3c(c2)C(=O)N([C@H](C)CO)C[C@@H](C)[C@H](CN(C)C(=O)C2CCCCC2)OCCCC[C@H](C)O3)cc1 | inactive | inactive | inactive |
| CC(C)CC#Cc1ccc2c(c1)O[C@@H](CN(C)C(=O)c1cccnc1)[C@H](C)CN([C@@H](C)CO)S2(=O)=O | inactive | inactive | inactive |
| C[C@@H]1CCCCO[C@H](CN(C)C(=O)Nc2ccccc2)[C@@H](C)CN([C@H](C)CO)C(=O)c2cc(NC(=O)Cc3ccccc3)ccc2O1 | inactive | inactive | inactive |
| C[C@H]1CN([C@@H](C)CO)C(=O)c2cccc(NS(=O)(=O)c3ccccc3)c2O[C@H]1CN(C)S(=O)(=O)c1cn(C)cn1 | inactive | inactive | inactive |
| Cc1noc(C)c1NC(=O)Nc1ccc2c(c1)C(=O)N([C@@H](C)CO)C[C@H](C)[C@H](CN(C)C(=O)Nc1cccc3ccccc13)O2 | inactive | inactive | inactive |
| CC(=O)N1CCN(CC(=O)NS(=O)(=O)c2ccccc2)CC1 | inactive | inactive | inactive |
| COc1ccc(S(=O)(=O)N(C)C[C@@H]2Oc3ccc(NS(=O)(=O)c4ccccc4)cc3C(=O)N([C@H](C)CO)C[C@@H]2C)cc1 | inactive | inactive | inactive |
| C[C@@H]1CN([C@@H](C)CO)C(=O)Cc2cc(NC(=O)CCC(F)(F)F)ccc2O[C@H]1CN(C)S(=O)(=O)c1cccs1 | inactive | inactive | inactive |
| Cc1noc(C)c1NC(=O)Nc1ccc2c(c1)C(=O)N([C@H](C)CO)C[C@H](C)[C@@H](CN(C)Cc1ccc(C(=O)O)cc1)OCCCC[C@H](C)O2 | inactive | inactive | inactive |
| Cc1noc(C)c1S(=O)(=O)Nc1ccc2c(c1)C(=O)N([C@@H](C)CO)C[C@H](C)[C@H](CN(C)S(=O)(=O)c1cn(C)cn1)O2 | inactive | inactive | inactive |
| Cc1noc(C)c1NC(=O)Nc1ccc2c(c1)CC(=O)N([C@@H](C)CO)C[C@@H](C)[C@H](CN(C)Cc1ccc(Cl)c(Cl)c1)O2 | inactive | inactive | inactive |
